Test results as given in patent US20070073039A1, “Peptides that inhibit viral infections” (priority 2005, published 2007).
“Also recorded” adds a separate entry of the source. Where two headings read alike, the source gives them in different places. Not every detail of the peptide structures is certain; ends, links or a residue may be inferred.

Assays:
HCV [1] = assay: Intracellular HCV RNA by real time RT-QPCR after infection of Huh-7.5.1 cells with and without peptide; type: cell-based, Hepatitis C virus (JFH-1)
Description: To accurately quantify the inhibitory effect of the selected peptides on HCV infection, intracellular HCV RNA was measured after infection by real time RT-QPCR with and without peptide treatment. The peptide stock solution was diluted 1:100 and mixed with equal volume of viral supernatant (propagated from day 18 virus preparation post transfection) to a final concentration approximately 20 μM. The virus with peptide or 0.5% DMSO solvent control was then used to infect Huh-7.5.1 cells at a multiplicity of infection (MOI) of 0.1. After an adsorption for 4 hours at 37° C., the inoculum was removed. The cells were washed 2 times, overlaid with 120 μL fresh growth medium and incubated at 37° C. At the indicated time points, total cellular RNA was isolated by the guanidine thiocyanate method. The HCV RNA transcript level was measured by real time RT-QPCR with the primers 5′—
normalized to cellular GAPDH levels.
To define the antiviral action of peptide #1 (SEQ ID NO:43), the antiviral activity of a series of N-terminal and C-terminal truncations of peptide 1 was analyzed using the focus reduction assay and by measuring the reduction in intracellular HCV RNA as described.

HCV [2] = assay: Median effective concentration (EC50) by intracellular HCV RNA RT-QPCR; type: cell-based, Hepatitis C virus (JFH-1); settings: FIG. 12B-C
Description: To determine the median effective concentration (EC50) of peptide #1, peptide stock solution (3.6 mM in DMSO) was serially 2-fold diluted in DMSO. An aliquot of peptide from each dilution was then diluted 1:100 in complete growth medium and mixed with equal volume of virus supernatant. The virus-peptide mixture was then used to infect Huh-7.5.1 cells (MOI=0.1). After adsorption for 4 hours at 37° C., the virus-peptide inoculum was removed. The cells were washed 2 times, overlaid with 120 μL fresh growth medium and incubated at 37° C. for 3 days. Cells were lysed and subjected to RNA analysis. The HCV RNA transcript level was measured by real time RT-QPCR and normalized to cellular GAPDH levels. The inhibition of HCV infection was calculated by comparing the intracellular HCV RNA transcript between the peptide treatment and solvent control.
To determine the median effective concentration (EC50) of the L- and D-form of peptide #1, peptide stock solution (3.6 mM in DMSO) was serially diluted 2-fold in DMSO. An aliquot of peptide from each dilution was then diluted 1:100 in complete growth medium and mixed with equal volume of virus supernatant. The virus-peptide mixture was then used to infect Huh-7.5.1 cells (MOI=0.1). After adsorption for 4 hours at 37° C., the virus-peptide inoculum was removed. […]

HCV [3] = assay: HCV virocidal assay (infectivity, total HCV RNA, sucrose density gradient); type: cell-based, Hepatitis C virus (JFH-1); settings: 18 μM, 4 hours at 37° C.
[4] = Circular dichroism (CD) spectroscopy of secondary structure; type: physicochemical; settings: 50 μM, pH 7.0, 25° C.
[5] = test system: vesicular stomatitis virus (VSV); type: cell-based; settings: 18 μM; for Blockade of VSV infection: Huh-7 cells, CPE
Dengue-2 [6] = assay: Dengue-2 infection of Vero cells, Enzyme-linked Immunosorbent Assay; type: cell-based; settings: for Inhibition of Dengue Infection, α-Capsid 9A7 / Inhibition of Dengue Infection, α-DEN ENV: Vero cells, 5 days
Description: Enzyme-linked Immunosorbent Assay. Vero cells (80,000 cells/well/ml) were seeded for 24 h pre-infection in 24-well plates. Cells were exposed to Dengue-2 (derived from Vero cells) in the presence of increasing concentration of peptide (or DMSO as control). Viruses and peptide were not removed (cells were not washed) throughout the incubation. Infection was analyzed after 5 days using ELISA that measured the amounts of Dengue-2 capsid released in the supernatant of infected Vero cells.

Dengue-2 [7] = assay: Dengue-2 infection of Vero cells, Intracellular FACS Assay; type: cell-based; settings: 20 μM
Description: Intracellular FACS Assay: Vero cells were seeded for 24 h pre-infection in 6-well plates. Cells were exposed to Dengue-2 in the presence of increasing concentrations of peptide (or DMSO as control). Viruses and peptide were washed away 2 h post-infection. Cells were taken for intracellular staining 3 days post-infection. Cells were stained with appropriate isotype control, Dengue Env, Dengue capsid or tubulin antibodies. Cells were analyzed by FACS.

[8] = test system: West Nile Virus (WNV) (New York strain); assay: West Nile Virus infection of A549 cells, immuno-peroxidase staining; type: cell-based; settings: 18 μM in 0.5% DMSO, 10^2 to 10^5 PFU/mL, 3 days
[9] = test system: lymphocytic choriomeningitis virus; assay: Effect on lymphocytic choriomeningitis virus; type: cell-based
Boma disease virus = assay: Effect on Boma disease virus; type: cell-based
HCV [10] = assay: Duration of antiviral effect and effect on ongoing HCV infection; type: cell-based, Hepatitis C virus (JFH-1); settings: for Effect on ongoing HCV infection: Huh-7 cells, 18 μM added 4 hours after infection and maintained in culture medium
Dengue-2 [11] = assay: Dengue-2 infection of Vero cells, Enzyme-linked Immunosorbent Assay; type: cell-based; settings: 1.25 μM, 5 days

CC[C@H](C)[C@H](NC(=O)[C@H](CC(=O)O)NC(=O)[C@H](CCCNC(=N)N)NC(=O)[C@H](CC(C)C)NC(=O)[C@H](Cc1c[nH]c2ccccc12)NC(=O)[C@@H](N)CO)C(=O)N[C@@H](Cc1c[nH]c2ccccc12)C(=O)N[C@@H](CC(=O)O)C(=O)N[C@@H](Cc1c[nH]c2ccccc12)C(=O)N[C@H](C(=O)N[C@@H](CS)C(=O)N[C@@H](CCC(=O)O)C(=O)N[C@H](C(=O)N[C@@H](CC(C)C)C(=O)N[C@@H](CO)C(=O)N[C@@H](CC(=O)O)C(=O)N[C@@H](Cc1ccccc1)C(=O)N[C@@H](CCCCN)C(=O)O)C(C)C)[C@@H](C)CC [Peptide 1]
HCV RNA fold inhibition 24 h 25 μM (HCV [1]; 24 h, 25 μM, Huh-7.5.1 cells, MOI 0.1, normalized to GAPDH): 1,860 fold
Fold Inhibition on HCV RNA (24 h) (HCV [1]; 24 h, working concentration 18.4-27.5 μM per peptide): 47697.9 fold
HCV RNA fold inhibition 72 h 25 μM (HCV [1]; 72 h, 25 μM, Huh-7.5.1 cells, MOI 0.1, normalized to GAPDH): 245,658 fold
Fold Inhibition on HCV RNA (72 h) (HCV [1]; 72 h, working concentration 18.4-27.5 μM per peptide): 301779.7 fold
EC50 values of the L- and D-forms compared (HCV [2]): virtually identical
Residual viral infectivity after preincubation of virus with peptide (HCV [3]): completely abolishes viral infectivity; also recorded: completely abolishes infectivity in all fractions
Reduction of total viral RNA content after preincubation of virus with peptide (HCV [3]; normalized to GAPDH): at least 3 fold
Reduction of viral RNA content of all sucrose gradient fractions (HCV [3]; sucrose density gradient): 4-5 fold
α-helical structure by CD spectra [4]: Spectra highly characteristic of amphotropic α-helices
Virocidal activity against VSV ([5]; 4 hours at 37° C.): no virocidal activity against VSV
Blockade of VSV infection [5]: does not block vesicular stomatitis virus (VSV) infection
Blockade of VSV infection ([5]; listed as NS5A-1975): no effect
Inhibition of Dengue Infection, α-Capsid 9A7 (Dengue-2 [6]; 1.25 μM): 0%
Inhibition of Dengue Infection, α-Capsid 9A7 (Dengue-2 [6]; 5 μM): 50.02%
Inhibition of Dengue Infection, α-DEN ENV (Dengue-2 [6]; 5 μM): 28.0%
Inhibition of Dengue viral infection (summary) (Dengue-2 [6]; 20 μM): completely inhibited Dengue viral infection
Inhibition of Dengue Infection, α-Capsid 9A7 (Dengue-2 [6]; 20 μM): 98.02%
Inhibition of Dengue Infection, α-DEN ENV (Dengue-2 [6]; 20 μM): 97.8%
Inhibition of Dengue viral infection as detected by ELISA (Dengue-2 [6]; FIG. 17, 20 μM): ~100%
% GATED, Dengue α-Capsid (9A7) (Dengue-2 [7]; Vero cells 3 days post-infection, DMSO 41.26): 0.82%
Inhibition of Dengue viral infection as detected by FACS (Dengue-2 [7]; FIG. 18): ~100%
Antiviral activity against WNV infection [8]: strong antiviral activity against WNV infection
Effect on lymphocytic choriomeningitis virus [9]: no effect
Effect on Boma disease virus (Boma disease virus): no effect
Prevention of HCV infection by a single dose added together with HCV (HCV [10]; 18 μM, 4 hours with virus, cells maintained for 11 days, Huh-7.5.1, MOI 0.1): permanently prevents HCV infection
Effect on ongoing HCV infection (HCV [10]; listed as peptide 1): abolishes ongoing HCV infection
Effect on ongoing HCV infection (HCV [10]; listed as peptide #1): further viral amplification (square) was prevented
Duration of antiviral effect post infection (HCV [10]; single dose): at least 11 days
Inhibition of Dengue Infection, α-DEN ENV (Dengue-2 [11]): 0%
